In PubChem BioAssay AID1508624 (National Center for Advancing Translational Sciences (NCATS), 2021):
Out of some 48,000 compounds screened, about 120 (0.25%) were called active. Another 4% or so got no clear call; they are omitted. Calls come from the whole dose curve; as a rule, active = well fitted activation curve with a large enough effect; inconclusive = small, poorly fitted or top-dose-only effect, or another doubt; inactive = no such curve, though single readings can be large or run the other way. The list shows a part of the results.

Experiment: Primary qHTS for Identification of Small Molecule Activators of Huntingtin-Antisense Promoter Activity; note: nearly all actives have a fitted effect of over 55% in size
Conditions: HEK293 HTT-AS promoter firefly luciferase reporter, 24 h; series mostly up to 57.5 µM; activity change, positive = activation: at the top concentration
In short: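 HEK293 luciferase promoter-reporter cells (2,500/well) plated 24 h, then compounds added at up to 57.5 uM final for 24 h at 37 °C. Firefly luminescence by Dual-Glo, normalized to vehicle (0%) and zero RLU (-100%).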
In the case of `CCc1nn(CCCC(=O)NCc2ccc(C)cc2)c(=O)c2cc3occc3n12`, the “activity change, positive = activation” value is reported as inactive: -16.3%. In the case of `CCOc1ccccc1N(C)C(=O)Cn1nc(Cc2ccncc2)c2ccccc2c1=O`, the “activity change, positive = activation” value is reported as inactive: -20.7%. In the case of `CCc1ccc(NC(=O)CC2C(=O)N(c3ccc(C)cc3)C(=O)N2C2CCCC2)cc1` (stereo unspecified), the “activity change, positive = activation” value is reported as inactive: -2.77%. In the case of `CC(C)(C)c1ccc(Oc2nc3ccccn3c(=O)c2/C=C(\C#N)c2nc3ccccc3s2)cc1`, the activity change, positive = activation is reported as inactive: 2.09% [at 11.5 µM, percent change from vehicle, -100% = no light]. With `C[C@@H](c1ncncc1F)[C@](O)(Cn1cncn1)c1ccc(F)cc1F` the “activity change, positive = activation” value was inactive: -12.7%. For `COc1ccc2c(c1)CCc1sc(NC(=O)c3ccc(Br)cc3)nc1-2`, the “activity change, positive = activation” value was inactive: -36.2%. For `CN(C)c1oc(-c2ccc(COc3ccccc3)o2)nc1C#N`, the “activity change, positive = activation” value was inactive: -24.2%. With `COc1ccc(N2CCN(S(=O)(=O)CCNC(=O)c3cc(=O)c4ccccc4o3)CC2)cc1` the “activity change, positive = activation” value was inactive: -2.34%. With `CC(C)CN(CCNC(=O)c1cn(C)c2ccc(S(=O)(=O)N3CCCCCC3)cc2c1=O)CC(C)C` the “activity change, positive = activation” value was inactive: -5.12%. In the case of `COc1cc(NC(=O)Cn2ccn(-c3cc(C)cc(C)c3)c(=O)c2=O)cc(OC)c1`, the “activity change, positive = activation” value is reported as inactive: -13.3%. For `Cc1cc(C)cc(NC(=O)CSc2nc(=O)[nH]c3c2CCC3)c1`, the “activity change, positive = activation” value was inactive: -26%. In the case of `Cc1cc(C)cc(NC(=O)CSc2nc3ncccc3[nH]2)c1`, the “activity change, positive = activation” value is reported as inactive: -10.4%. In the case of `Cc1ccc(NC(=O)C(=O)NCC(c2ccc3c(c2)OCO3)N2CCN(C)CC2)c(C)c1` (stereo unspecified), the “activity change, positive = activation” value is reported as inactive: -15.1%. With `Cc1ccc(NC(=O)C(Cc2ccccc2)NS(=O)(=O)c2ccc3c(c2)CCC(=O)N3)cc1` (stereo unspecified) the “activity change, positive = activation” value was inactive: -18.6%. In the case of `CS(=O)(=O)c1cccc(-c2nnc(NC(=O)c3ccc4c(c3)OCCO4)o2)c1`, the “activity change, positive = activation” value is reported as inactive: 0.212%. For `CCc1ccc(NC(=O)[C@H](CSCc2ccccc2)N2Cc3ccccc3C2=O)cc1`, the “activity change, positive = activation” value was inactive: -16.6%. In the case of `COc1ccc(-c2cc3c(=O)n(CC(=O)Nc4cc(F)ccc4F)ccn3n2)cc1OC`, the “activity change, positive = activation” value is reported as inactive: -26.7%. For `Cc1nn(-c2ccccc2)c2sc(C(=O)Nc3ccc(Br)cc3)cc12`, the activity change, positive = activation was inactive: 6.04% [at 11.5 µM, percent change from vehicle, -100% = no light]. For `O=C1COc2ccc(-c3cc(-c4ccccc4)c4c(n3)-c3ccccc3OC4)cc2N1`, the “activity change, positive = activation” value was inactive: 0.309%. In the case of `O=C(NCCc1ccc(Cl)cc1)c1ccc2c(c1)N(Cc1ccc(F)cc1)C(=O)CS2`, the “activity change, positive = activation” value is reported as inactive: -57.2%. For `CN(C)c1ccc(-c2nc(-c3cccs3)c(-c3cccs3)[nH]2)cc1`, the “activity change, positive = activation” value was inactive: -43.1%. For `CN1CCN(CCCN2c3ccccc3Sc3ccc(S(=O)(=O)N(C)C)cc32)CC1`, the “activity change, positive = activation” value was inactive: -8.61%. With `CCCn1c(SCC(O)c2ccccc2)nc2ccccc21` (stereo unspecified) the “activity change, positive = activation” value was inactive: -13.8%. In the case of `COc1cccc(CNC(=O)CCCn2ncn3c(cc4occc43)c2=O)c1`, the “activity change, positive = activation” value is reported as inactive: -9.48%. For `CN[C@@H](C)[C@H]1[C@H](O)C[C@@]2(C)[C@@H]3CC[C@H]4C(C)(C)[C@@H](NC)CC[C@@]45C[C@@]35CC[C@]12C`, the “activity change, positive = activation” value was inactive: -2.75%. For `Cc1ccc(-c2noc(-c3ccccc3NC(=O)C3CC(=O)N(c4ccc(C)cc4)C3)n2)cc1` (stereo unspecified), the “activity change, positive = activation” value was inactive: 20.4%. For `COc1cc2nc(Nc3cccc(C)c3)nc(N)c2cc1OC`, the “activity change, positive = activation” value was inactive: -3.8%. In the case of `Cc1ccc(C(=O)NCC(c2ccco2)S(=O)(=O)c2cccs2)cc1C` (stereo unspecified), the “activity change, positive = activation” value is reported as inactive: 14.2%. With `COC(=O)c1sc(-c2ccccc2)cc1NC(=O)Nc1ccc(Cl)cc1` the “activity change, positive = activation” value was inactive: -13%. For `CC1=C(C(=O)NCc2ccccc2C)C2(CCCCCC2)OC1=O`, the “activity change, positive = activation” value was inactive: -11%. In the case of `CCCCN(Cc1cc2ccccc2[nH]c1=O)C(=O)c1cccc(Cl)c1`, the “activity change, positive = activation” value is reported as inactive: -13.2%. In the case of `O=C(Oc1ccc(F)cc1)c1nc(SCc2ccc(F)cc2)ncc1Cl`, the “activity change, positive = activation” value is reported as inactive: -1.21%. For `COc1ccc(NC(=O)CCS(=O)(=O)c2ccc3c(c2)oc(=O)n3C)cc1OC`, the “activity change, positive = activation” value was inactive: -17.8%. For `O=c1[nH]c(=O)n([C@H]2CCCO2)cc1F`, the “activity change, positive = activation” value was inactive: -10.1%. In the case of `COc1ccccc1C(=O)OCc1cc(=O)n2nc(-c3cccs3)sc2n1`, the “activity change, positive = activation” value is reported as inactive: 21.1%. In the case of `CCOc1ccc(-c2cc(NC(=O)Nc3ccc(Cl)cc3)c(C(=O)OC)s2)cc1`, the “activity change, positive = activation” value is reported as inactive: 22.3%. With `CCCSc1ncc(Cl)c(C(=O)N(Cc2cccc(Cl)c2)C2CCS(=O)(=O)C2)n1` (stereo unspecified) the “activity change, positive = activation” value was inactive: -35.4%. With `CCOC(=O)c1c(NC(=O)CCCOc2ccc(C(C)(C)C)cc2)sc2c1CCCC2` the “activity change, positive = activation” value was inactive: -13.3%. With `COc1ccc(OC)c(NC(=O)c2cnc(N3CCCCC3)c3ccccc23)c1` the “activity change, positive = activation” value was inactive: -26.7%. With `Cc1cccc(C(c2sc3nc(-c4ccco4)nn3c2O)N2CCN(c3ccccc3F)CC2)c1` (stereo unspecified) the “activity change, positive = activation” value was inactive: -1.61%. With `CCOC(=O)C1CCCN(S(=O)(=O)c2cc(Br)cc3c2N(C(C)=O)CC3)C1` (stereo unspecified) the “activity change, positive = activation” value was inactive: -9.2%. For `CCC(=O)N1CCc2cc(S(=O)(=O)NCCC(=O)NCc3ccc(C)cc3)ccc21`, the “activity change, positive = activation” value was inactive: -0.436%. In the case of `CN(C)CCCNC(=O)c1ccc(-c2cc(O)c3ncccc3c2)cc1`, the “activity change, positive = activation” value is reported as inactive: -13.5%. In the case of `COc1cccc(-n2c(-c3ccccc3F)nc3c(cnn3-c3ccc(C)cc3)c2=O)c1`, the “activity change, positive = activation” value is reported as inactive: -47.1%. For `COc1ccc(NC(=O)c2sc3nc4c(cc3c2N)CCCCCC4)cc1`, the “activity change, positive = activation” value was inactive: -35.9%. In the case of `CCOC(=O)C(Cc1ccccc1)NC(=O)CCc1c(C)nc2nc(C)nn2c1C` (stereo unspecified), the “activity change, positive = activation” value is reported as inactive: -9.29%.
